The other results are listed elsewhere or left out.
Target: T1, OsWOX13 (Oryza sativa, UniProt Q5QMM3 1-267)
T1 sequence: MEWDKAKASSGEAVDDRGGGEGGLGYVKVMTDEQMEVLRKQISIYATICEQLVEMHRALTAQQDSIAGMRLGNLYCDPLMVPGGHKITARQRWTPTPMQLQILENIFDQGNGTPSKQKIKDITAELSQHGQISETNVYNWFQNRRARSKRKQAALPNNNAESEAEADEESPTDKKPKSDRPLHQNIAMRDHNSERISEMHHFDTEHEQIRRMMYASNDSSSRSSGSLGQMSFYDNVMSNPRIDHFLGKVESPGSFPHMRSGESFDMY
Experiment: protein-binding microarray (RPBM); PBS, 2% BSA, 51.3 ng/ul salmon testes DNA, 50 uM zinc acetate, 200 nM TF, 25 C, 1 h; high values mean tight binding
Conditions: protein: recombinant; tags: N-terminal polyhistidine and DsRed monomer fusion (pET32a); label: CyDye5-dUTP incorporated in the synthesized complementary strand; 3' TTTTT single-stranded linker to array surface; dsDNA, one strand shown
Summary of the method: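 Polyhistidine-tagged DsRed fusions of transcription factors, joined at the N-terminus, were expressed in E. coli BL21-CodonPlus and isolated on Ni–NTA. They were incubated at 200 nM for 1 h at 25 °C on a custom Agilent array, double-stranded and BSA-blocked, in PBS with 2% BSA, salmon testes DNA and 50 µM zinc acetate. The binding signal is per-feature fluorescence intensity (arbitrary units) read on an Axon 4000B scanner after washing.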

Sequence | binding signal
GTAATTATCTATGAGATAAATTATAGGGACCCTGCTATGACGGAGTCACCTAGTGCAG | 6980 fluorescence intensity (a.u.)
TCACTAATCTTATAACTAATCAAGCATTGACGCAGATGATCGGAGTCACCTAGTGCAG | 11200 fluorescence intensity (a.u.)
TAGGATTGTTAATTATACCTACCTAAGCATACGATATTCACGGAGTCACCTAGTGCAG | 12400 fluorescence intensity (a.u.)
ACACTAATTAACCCTAAAACGAAAAGATAATCCAGCTATGCGGAGTCACCTAGTGCAG | 17100 fluorescence intensity (a.u.)
TGAAATTTCTACTGTCATGCTTCCTTGTCCCATTACTACACGGAGTCACCTAGTGCAG | 3170 fluorescence intensity (a.u.)
GTTGTGATAATTACAAGAAACACTTACGGGTAGCCGTGATCGGAGTCACCTAGTGCAG | 8530 fluorescence intensity (a.u.)
CCCAGAGCTAATTAGACCACTACTGAATAATGACACTTTCCGGAGTCACCTAGTGCAG | 11000 fluorescence intensity (a.u.)
AAGATAGATAGATAGATAGATAGATAGATCGATCGATCATCGGAGTCACCTAGTGCAG | 14900 fluorescence intensity (a.u.)
GTCCATGATTAGCCATAAGTGCTACCGTAACCCACCTGTGCGGAGTCACCTAGTGCAG | 23300 fluorescence intensity (a.u.)
AATGGTAATTAAGAATTTACTACTCACAGTCTATAATACGCGGAGTCACCTAGTGCAG | 8680 fluorescence intensity (a.u.)
AAACCGAATTGAAGTTTATAAATTTGTCAGAATTTATCTTCGGAGTCACCTAGTGCAG | 5290 fluorescence intensity (a.u.)
GCCCCGAGTTTTGATTGGTTATTCGTTGCTGCTTGTAAACCGGAGTCACCTAGTGCAG | 24100 fluorescence intensity (a.u.)
TCACGGATTAAATTTCGATCATTTTGAGGGTCACAAAGTGCGGAGTCACCTAGTGCAG | 6040 fluorescence intensity (a.u.)
GGTCATTTTGCCTAATTAACCCAGGCAATAATAAACATCTCGGAGTCACCTAGTGCAG | 5120 fluorescence intensity (a.u.)
ATACAATTACAAGTCATTTTCAATGTAACTAACAATAGATCGGAGTCACCTAGTGCAG | 4380 fluorescence intensity (a.u.)
TGTGATTGAGGGAGTTAATTAGGACAAGTTAATAAGTGGCCGGAGTCACCTAGTGCAG | 64500 fluorescence intensity (a.u.)
CAAATGAGATTATAAATCATTTTCAGATTACCTCTAATAGCGGAGTCACCTAGTGCAG | 16700 fluorescence intensity (a.u.)
AAAACTCAATTAAACACACATTATTACCACCTCATTTTGCCGGAGTCACCTAGTGCAG | 5860 fluorescence intensity (a.u.)
GTAAATTGCGTCCACGGTATATAAACTTGGTAGGTGGGTGCGGAGTCACCTAGTGCAG | 12600 fluorescence intensity (a.u.)
CTCCAAGTCTGACTCAAACCAATCAATTCCACACAAGTTCCGGAGTCACCTAGTGCAG | 4080 fluorescence intensity (a.u.)
TGTGATTAGTACAGTAGTTTAATTAGAATTTTGAGGGCTTCGGAGTCACCTAGTGCAG | 44000 fluorescence intensity (a.u.)

Sequence | binding signal
GAGATTATAGATTTATTTGCGGCCTCCATCTGTTGATCATCGGAGTCACCTAGTGCAG | 18400 fluorescence intensity (a.u.)
CTGAGCCTGATTTGCTCCCTTGTCAGTCGCGTTGGTTGGCCGGAGTCACCTAGTGCAG | 13300 fluorescence intensity (a.u.)
TTAAGATTATTATAATCTAGATTATTAAATCAGATTACTCCGGAGTCACCTAGTGCAG | 18600 fluorescence intensity (a.u.)
CATGGACAACAATCATTGCCTGTTACGCGCAAAGTTCTCGCGGAGTCACCTAGTGCAG | 8490 fluorescence intensity (a.u.)
TTTAATTTACCCATTGATCTAGCTCGCGATATATATGATCCGGAGTCACCTAGTGCAG | 22000 fluorescence intensity (a.u.)
TAGGTGAAATTGGTATTATAATATCGTCGAAATTTCGTAGCGGAGTCACCTAGTGCAG | 5030 fluorescence intensity (a.u.)
CTGATAGATAGCCGTCCGATCCGCGCGGCTCGATCACACGCGGAGTCACCTAGTGCAG | 14000 fluorescence intensity (a.u.)
GCTGTGATTTGCATGCATGCAAAATCTATCTACGTGCAAACGGAGTCACCTAGTGCAG | 12700 fluorescence intensity (a.u.)
GGTAATTTGATCGACCGCAATAGTTCATGGGGTAATTTGGCGGAGTCACCTAGTGCAG | 34800 fluorescence intensity (a.u.)
AGCCCACGTTAATTGGCCTCTGACTTCCCTACGTTCTCCTCGGAGTCACCTAGTGCAG | 19100 fluorescence intensity (a.u.)
TCCATTTCAGAATAAATTAATCTATCACGAGATGTGATATCGGAGTCACCTAGTGCAG | 8230 fluorescence intensity (a.u.)
AATATACACTTGATTAGTACTAATCAATCCAAAGCAATGACGGAGTCACCTAGTGCAG | 23500 fluorescence intensity (a.u.)
TTTAAATTTAATTCCAAGGAATGGCGAGTTCGTGCTGAGCCGGAGTCACCTAGTGCAG | 17500 fluorescence intensity (a.u.)
ATAAACTTACAATTTTATAAACTTACTCTATCACCTTTGTCGGAGTCACCTAGTGCAG | 4410 fluorescence intensity (a.u.)
ACTGATTTGGTGGACAACTCTTGAAGTTGAAGAAGCTCTCCGGAGTCACCTAGTGCAG | 14200 fluorescence intensity (a.u.)
TGTTGCTTGCTAATTGCTATCTTGACTTATTATTTGGTTTCGGAGTCACCTAGTGCAG | 4860 fluorescence intensity (a.u.)
TAACAAATTACACAAATTTCGAGTGTCACTAGCAAATTTTCGGAGTCACCTAGTGCAG | 9370 fluorescence intensity (a.u.)
TTACAAATTATTTTATATTTGTAAATATATCATTTCGTCTCGGAGTCACCTAGTGCAG | 8800 fluorescence intensity (a.u.)
AAAATACTGACTGGATTGCCACGCGTATGTCACGTAGGACCGGAGTCACCTAGTGCAG | 6400 fluorescence intensity (a.u.)
ACCAGGAAGTCATAAATTAATGGATCGAATATGACCTGCTCGGAGTCACCTAGTGCAG | 3160 fluorescence intensity (a.u.)
TATCTAAATTATATAACAATAATAAGATTAAAATAGCATTCGGAGTCACCTAGTGCAG | 7050 fluorescence intensity (a.u.)
